Molecules are shown by their SMILES. The campaign covered roughly 50,000 compounds. About 800 (1.6%) showed an effect of 50% or more. This is one part of the list.

Drawing on PubChem BioAssay AID1240 (Sanford-Burnham Center for Chemical Genomics, 2008), this text covers displacement for 67 compounds.

This assay concerns the target Bcl-2-like protein 10 (Homo sapiens) (UniProt Q9HD36). The experiment in a line: TR3 peptide-Bcl-B binding displacers, biochemical primary FP assay, phenotype converters (AID 1240).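 Also: 0% = Bcl-B with tracer peptide and DMSO and 100% = tracer peptide lacking Bcl-B.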 Conditions: GST-Bcl-B / FITC-TR3 peptide fluorescence polarization; stronger effect = higher value; compound at 3.75 mg/L. A general note: In fluorescence polarisation assays a small probe gives low polarisation when free and higher when bound to something large.
Sequence of UniProt Q9HD36 (Q9HD36 whole entry, looked up): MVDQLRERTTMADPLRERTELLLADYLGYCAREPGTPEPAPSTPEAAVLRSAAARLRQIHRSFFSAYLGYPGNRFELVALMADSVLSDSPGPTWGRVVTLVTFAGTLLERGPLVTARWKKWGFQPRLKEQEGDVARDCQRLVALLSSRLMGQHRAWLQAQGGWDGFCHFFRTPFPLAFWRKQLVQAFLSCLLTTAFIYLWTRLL
With `O=C(Nc1ccc(I)cc1Cl)c1cccnc1`, the displacement was -2.6%.
As to `COc1cc(NS(=O)(=O)c2ccc(N/C=C\C(=O)c3ccc4ccccc4c3)cc2)nc(OC)n1`, the displacement was found to be 15.7%.
The value for `CC(C)CN1C(=O)c2ccc(C(=O)Nc3ccccc3C(=O)O)cc2C1=O` was -11.7%; that for `COc1cc(C(=O)N2N=C(c3ccccc3)CC2c2ccccc2)cc(OC)c1OC` (configuration not stated) was 2.5%; that for `Cc1cc(C)c(NC(=O)C2C3C4CCC(C4)C23)c(C)c1` (configuration not stated) was -8.8%.
Take `CCOC(=O)c1c(C)nc2n(/N=C/c3ccccc3)c3ccccc3n12`: the displacement is 6.6%.
Take `CCN(CC)CCOC(=O)c1ccc(NC(=O)CCN2C(=O)S/C(=C\c3ccc(OC)cc3)C2=O)cc1`: the displacement is 10.3%.
The value for `CCN(CC)S(=O)(=O)c1ccc(NC(=O)c2ccccc2)cc1` was 0.3%.
With `COc1ccc(/C=C/C(=O)O)cc1S(=O)(=O)NCCO`, the displacement was -3.6%.
As for `CC(=O)c1cccc(NC(=O)/C(=C/c2cccc3ccccc23)NC(=O)c2ccc(C)cc2)c1`, the displacement was -6.6%.
The value for `O=C(Nc1ccc(-c2nc3ccccc3o2)c(O)c1)c1cc2ccccc2oc1=O` was -8.9%.
As for `O=C1c2ccccc2C(=O)c2c([N+](=O)[O-])ccc(N3CCOCC3)c21`, the displacement stood at 2.8%.
The value for `O=C1OC(c2ccccc2)=C/C1=C/c1ccc(Br)cc1` was 3%.
Regarding `Cc1ccc2oc(-c3cc(NC(=O)c4cc5ccccc5o4)ccc3O)nc2c1`, the displacement worked out at 9.5%.
As for `S=c1nc(COc2ccc(Cl)cc2Cl)[nH][nH]1`, the displacement was 9.7%.
The value for `O=C(NCC1(c2ccccc2)CCCC1)C(c1ccccc1)c1ccccc1` was -1.1%; that for `Cc1oc(C(N)=O)cc1COc1ccccc1C(N)=O` was 6.9%.
In the case of `COc1ccc(N2C(=O)NC(=O)/C(=C/c3cccc(O)c3)C2=O)cc1`, the displacement was -6.3%.
Under `CC(=O)c1cccc(NC2=C(Cl)C(=O)c3c(Cl)c(Cl)c(Cl)c(Cl)c32)c1` stands 32.2%.
As for `CN(C)c1ccc(CNC23CN4CN(CN(C4)C2)C3)cc1`, the displacement came to 0.4%.
As to `COc1ccc(N(CC(=O)NCCc2ccccc2)S(C)(=O)=O)c(OC)c1`, the displacement was 3.4%.
Under `O=C1CC(c2ccccc2)CC2=C1C(c1c(F)cccc1Cl)Nc1ccccc1N2` (configuration not stated) stands 7.1%; under `O=C(NCc1ccncc1)c1cccc([N+](=O)[O-])c1`, -10.7%.
Take `Cc1ccccc1C(=O)O/N=C(\N)c1cccc([N+](=O)[O-])c1`: the displacement was -7.1%.
In the case of `Cc1ccc(S(=O)(=O)N2CCCCC2)c(C)c1N1CCc2cn[nH]c21`, the displacement is -4.9%.
As for `Cc1ccc(C2C3=C(CC(C)(C)CC3=O)Nc3ccc4ccccc4c32)cc1[N+](=O)[O-]` (configuration not stated), the displacement was -0.8%.
Under `Cc1cc(C)c(/C(O)=C2/C(=O)C(=O)N(c3ccccn3)C2c2cccnc2)c(C)c1` (configuration not stated) stands -19.3%; under `C/C(=N\NC(=O)c1cccc([N+](=O)[O-])c1)c1ccncc1`, 1.5%; under `Cn1/c(=N/N=C/c2cc([N+](=O)[O-])ccc2O)sc2ccccc21`, 13.5%.
The value for `COc1ccccc1NC(=O)CSc1nsc(SCC(=O)Nc2ccccc2OC)n1` was 11.6%; that for `O=C(Nc1ccc(Cl)cc1)c1ccc(CN2CCN(c3ccccc3)CC2)cc1` was -7%.
The value for `O=C1/C(=C/c2ccccc2Cl)NC(=S)N1c1ccccc1` was 4.5%; that for `Cc1ccc(C(=O)NNC(=O)c2ccc3ccccc3c2O)cc1` was 20.5%.
With `CCOC(=O)Cc1csc(NS(=O)(=O)c2ccc3ccccc3c2)n1`, the displacement is -0.6%.
The value for `O=C(N/C(=C/c1ccc(Cl)cc1)C(=O)N1CCCCC1)c1ccco1` was -3.8%; that for `O=C(Nc1cccc(Oc2ccc3c(c2)C(=O)N(c2ccccc2)C3=O)c1)c1ccc([N+](=O)[O-])cc1` was 21.1%; that for `COc1ccc(C2CC(C(F)(F)F)n3nc(C(=O)Nc4c(F)cc(F)cc4Br)c(Cl)c3N2)cc1OC` (configuration not stated) was 13.4%.
Under `COC(=O)c1ccc(/C=N/NC(=O)COc2c(Br)cc(Br)cc2Br)cc1` stands 6.1%; under `O=C(Nc1ccc2oc(-c3cccnc3)nc2c1)c1ccc([N+](=O)[O-])cc1Cl`, -6%.
On to `O=C(O)CCC(=O)N1N=C(c2ccc([N+](=O)[O-])cc2)CC1c1ccc(Br)cc1` (configuration not stated), for which the displacement was 15.6%.
The value for `COc1cccc(OCCOc2c(Cl)cc(/C=c3\sc4nc5ccccc5n4c3=O)cc2OC)c1` was 92.6%; that for `COc1ccc(C2=NN(CN3C(=O)C(=O)c4cc(Br)ccc43)C(c3cccc([N+](=O)[O-])c3)C2)cc1` (configuration not stated) was -1.5%; that for `CCOC(=O)COc1ccc2oc(=O)cc(C)c2c1` was 1.3%.
Under `CC(=O)OC(OC(C)=O)c1ccc([N+](=O)[O-])cc1` stands -6.4%.
Consider `COc1cccc(/C=C/C(=O)c2ccc(Cl)cc2)c1OC`, for which the displacement was found to be 0.9%.
On to `Cc1ccc(OCC(=O)NCC(C)C)cc1`, for which the displacement was found to be 13.5%.
`C=C(C)COc1ccc2oc(C)c(C(=O)OCCOC)c2c1`: the displacement was found to be 12.6%.
Consider `O=C(N/N=C/c1cccs1)c1cccc2cc[nH]c12`, for which the displacement was -1.6%.
The value for `Cc1nc(SCC(=O)N2c3ccccc3Sc3ccccc32)n[nH]1` was -3.9%.
Under `O=C(/C=C/c1ccccc1)Nc1ccccc1CO` stands 9.4%; under `COC(=O)c1c(-c2ccc3ccccc3c2)csc1N`, 3.7%.
The value for `COc1cc(CN2CCN(Cc3ccco3)CC2)cc(OC)c1OC` was 3.2%.
Turning to `COc1cc(NC(=O)c2nn3c(c2Br)NC(c2cccs2)CC3C(F)(F)F)cc([N+](=O)[O-])c1` (configuration not stated), the displacement was determined as 1.6%.
As for `CCc1cccc(C)c1NC(=O)c1ccc(C)c([N+](=O)[O-])c1`, the displacement is 9.6%.
Turning to `COc1cc(C(=O)Nc2ccc(N3C(=O)c4ccc(Cl)cc4C3=O)c(C)c2)cc(OC)c1OC`, the displacement was -1.5%.
`CCCCCCCn1c(NCCO)nc2ccccc21`: the displacement is -0.3%.
Under `CCc1ccc(C=NC23CN4CN(CN(C4)C2)C3)s1` stands -15.3%.
Under `COc1ccc(O)c(C(=O)CC(=O)c2ccccc2Cl)c1` stands -5.7%.
As to `Cn1c(=O)oc2cc(Cl)c(C(=O)O)cc21`, the displacement was found to be 9.5%.
In the case of `CCOc1cccc(C(=O)Nc2ccc(NC(=O)c3cccc(C)c3)cc2)c1`, the displacement is 8.4%.
On to `CCOC(=O)c1ccccc1NC(=O)c1ccccc1`, for which the displacement came out at 9.6%.
For the compound `O=C(Cc1ccccc1)Oc1cccc2c(OC(=O)Cc3ccccc3)cccc12`, the displacement is -3.2%.
With `Cc1ccc(-c2c(C#N)c(N)nc3c2CCCCCC3)o1`, the displacement was found to be 1.4%.
Turning to `CC1(C)CC(=O)C2=C(C1)OC(N)=C(C#N)C2c1ccc([N+](=O)[O-])cc1` (configuration not stated), the displacement was determined as 15.9%.
Take `CCOc1ccc(C(=O)Nc2cc(Cl)cc(Cl)c2)cc1[N+](=O)[O-]`: the displacement worked out at 14.4%.
On to `O=C1CC(c2ccc(Cl)cc2)CC2=C1C(c1cccs1)Nc1ccccc1N2` (configuration not stated), for which the displacement was -5.3%.
The value for `Cc1c(N(C(=O)c2ccc(F)cc2)C(C)C)c(=O)n(-c2ccccc2)n1C` was -5%.
